Experimental data reported in PubChem BioAssay AID1508624 (National Center for Advancing Translational Sciences (NCATS), 2021).
Screen size: about 48,000 compounds; about 120 (0.25%) were called active. About 4% were inconclusive and are not listed. The call rests on the fitted dose curve; in most records, active means well fitted activation curve with a large enough effect; inconclusive means small, poorly fitted or top-dose-only effect, or another doubt; inactive means no such curve, though single readings can be large or run the other way. The list shows a part of the results.

Assay: Primary qHTS for Identification of Small Molecule Activators of Huntingtin-Antisense Promoter Activity; further: nearly all actives have a fitted effect of over 55% in size
Details: HEK293 HTT-AS promoter firefly luciferase reporter, 24 h; series mostly up to 57.5 µM; activity change, positive = activation: at the top concentration
Outline: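 HEK293 Fluc reporter, 2,500 cells/well, 24 h pre-culture; cpds up to 57.5 uM final, 24 h 37 degrees C; Dual-Glo, 10 min RT; normalized vehicle = 0%, zero RLU = -100%.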

Compound	activity change, positive = activation
COc1cccc(NC(=O)Cn2c(=O)ccc3cc(S(=O)(=O)N4CCC(C)CC4)ccc32)c1	inactive: -39.4%
COc1ccc(Cl)cc1S(=O)(=O)N1CCN(CC(=O)Nc2ccccc2C(F)(F)F)CC1	inactive: -27%
CCOc1ccc(-n2nc3ccc(NC(=O)c4cccc(F)c4)cc3n2)cc1	inactive: -20.1%
CCSc1nc2c([nH]c3ccccc32)c(=O)n1-c1cccc(OC)c1	inactive: -33.4%
CCOc1ccc(-c2nnc(SCC(=O)NC(C)CC)nc2-c2ccc(OCC)c(OC)c2)cc1OC (stereo not given)	inactive: 8.77%
CC(=O)Nc1nonc1-c1nnc(SCC(=O)Nc2cccc(C)c2C)n1-c1ccccc1	inactive: -2.49%
COc1cc(C(=O)Nc2cccc(OCc3cc(=O)n4cc(C)sc4n3)c2)cc(OC)c1OC	inactive: 0.645%
COc1ccc(Cn2cc(C(=O)c3ccc(F)cc3)c(=O)c3cc4c(cc32)OCCO4)cc1	inactive: -21.8%
Cc1nn(C)c(C)c1CCNC(=O)Nc1cccc(Cl)c1C	inactive: 3.69%
COc1ccc(-c2nc3ccccc3o2)cc1NC(=O)c1ccc(-c2ccc(Br)cc2)o1	inactive: 4.46%
COc1ccc(-c2nc(CCNC(=O)c3c(F)cccc3Cl)cs2)cc1	inactive: -17%
CC1CCN(C(=O)Cn2cc(SCC(=O)Nc3ccccc3C(F)(F)F)c3ccccc32)CC1	inactive: -47.5%
CCCCNc1ccc(-c2nc(-c3ccncc3)no2)cc1[N+](=O)[O-]	inactive: 0.126%
CCCCc1nn2c(=O)cc(COC(=O)c3ccco3)nc2s1	inactive: 11.1%
CCOc1ccc(-n2cc(-c3ccccc3)c3c(N4CCC(C)CC4)ncnc32)cc1	inactive: -20.5%
COc1ccc(-c2nnc(Nc3ccc(OC)c(C(N)=O)c3)c3ccccc23)cc1	inactive: -14%
CCS(=O)(=O)c1nc(S(=O)(=O)c2ccc(C)cc2)c(NC(C)c2ccccc2)s1 (stereo not given)	inactive: -41.5%
Cc1ccc(S(=O)(=O)c2nc(-c3ccc(F)cc3)oc2SCC(=O)c2ccccc2)cc1	inactive: -17.1%
CCc1ccc2oc(-c3cccc(NC(=O)C(C)(C)Oc4ccc(Br)cc4)c3)nc2c1	inactive: 13.6%
Cc1cc(C)cc(Nc2ncnc3onc(-c4ccc(F)cc4)c23)c1	inactive: -30.2%
O=C(c1ccc2c(c1)CCCC2)N1CCN(c2nc3ccc(F)cc3s2)CC1	inactive: -14.3%
CCOc1ccc(CNC(=O)c2cc3c(s2)-c2ccccc2OC3)cc1	inactive: -2.02%
COc1cc(NC(=O)NC(C)c2c(-n3cccc3)sc3c2CCN(C)C3)cc(OC)c1 (stereo not given)	inactive: -11.2%
COc1cccc(-n2c(SCC(=O)N3CCCc4ccccc43)nc3c([nH]c4ccccc43)c2=O)c1	inactive: -28.8%

Compound	activity change, positive = activation
CCc1ccc(S(=O)(=O)NCc2nc3cccnc3n2Cc2ccccc2Cl)cc1	inactive: -21.7%
CCCOc1ccc(CNC(=O)Cn2cc3c(n2)-c2c(oc(C(=O)N4CCOCC4)c2C)CC3)cc1	inactive: -34.9%
COc1ccc(Cl)cc1NC(=O)Cn1c(=O)n(CCCC(=O)NCCc2ccc(OC)c(OC)c2)c(=O)c2ccccc21	inactive: -20.8%
O=C(CCSCc1cccc(F)c1)NCc1ccccc1	inactive: -4.17%
O=C(CSc1cn(CCNC(=O)c2ccccc2F)c2ccccc12)Nc1ccc(F)cc1	inactive: -16.8%
COc1cccc(N2C(=O)CSC23C(=O)N(CC(=O)Nc2cccc(Cl)c2)c2ccccc23)c1 (stereo not given)	inactive: -21.7%
CN1CC(=O)N2C(Cc3c([nH]c4ccccc34)[C@H]2c2ccc3c(c2)OCO3)C1=O (stereo not given in full)	inactive: -32%
COc1cc(CN(C(=O)COc2ccccc2Cl)c2ccccn2)cc(OC)c1OC	inactive: -13.7%
COc1cccc(-n2c(-c3ccco3)nc3c(cnn3-c3ccc(Cl)cc3)c2=O)c1	inactive: -31.9%
CCOc1ccc(-n2c(=O)c3c4c(sc3n(CC(=O)NC(C)CC)c2=O)CCC4)cc1 (stereo not given)	inactive: 3.94%
O=S(=O)(c1ccc(Cl)cc1)c1nnn2c1nc(NCc1cccs1)c1sccc12	inactive: -36.7%
CN(C)S(=O)(=O)N(CC(=O)NCCSCc1cccc(Cl)c1)c1ccccc1	inactive: -17.4%
CCOC(=O)c1ccc(N2C(=O)c3n[nH]c(-c4cccs4)c3C2c2cccc(OC)c2)cc1 (stereo not given)	inactive: -48.9%
CCC(=O)Nc1ccc2nc(SCc3ccccc3)sc2c1	inactive: 6.57%
CCC(CC)C(=O)N1CCc2cc(OC)c(OC)cc2C1COc1ccc(C(=O)OC)cc1 (stereo not given)	inactive: -26.9%
COc1ccc(C)cc1NC(=O)CSc1nc(=O)[nH]c2c1CCCC2	inactive: -18.1%
CCC1CN(S(=O)(=O)c2ccc3c(c2)NC(=O)CC(=O)N3)c2cc(Cl)ccc2O1 (stereo not given)	inactive: -24.5%
Cn1c(=O)c2c(-c3ccccc3Cl)n(Cc3ccc(Cl)cc3)cc2n(C)c1=O	inactive: -17.8%
Cc1cccc(N2CCN(C(=O)CCC(=O)NNc3nc4ccccc4c4nc(C)nn34)CC2C)c1 (stereo not given)	inactive: -22.2%
COc1cc(C2c3c(-c4c(C)cc(C)cc4O)n[nH]c3C(=O)N2CCCOC(C)C)cc(OC)c1OC (stereo not given)	inactive: -21%
CCc1ccccc1NC(=O)CN1C(=O)COc2ccc(S(=O)(=O)Nc3ccccc3)cc21	inactive: -25.7%
CCN1CCN(c2cc(-c3ccc(F)cc3)c3c(n2)CCCCCC3)CC1	inactive: -3.27% [at 25.1 µM, percent change from vehicle, -100% = no light]
C#CCN(C)CC1=Cc2ccccc2Oc2ccccc21	inactive: -15.9%
Cc1ccc(N2CC(c3nnc(Cc4ccccc4Cl)o3)CC2=O)cc1 (stereo not given)	inactive: -15.7%

Compound	activity change, positive = activation
COc1ccccc1Cc1nc2ccccc2nc1SCC(=O)Nc1ccccc1C(F)(F)F	inactive: -1.41%
COc1ccc(-c2nc3c(C#N)c[nH]n3c2NC2CCCC2)cc1	inactive: 22%
COc1ccc(S(=O)(=O)n2nc(-c3ccco3)nc2NCc2ccc(OC)c(OC)c2)cc1	inactive: -16.3%
COc1ccc(N(C(=O)c2ccc(Cl)cc2)S(=O)(=O)c2ccc(C)cc2)cc1	inactive: -20%
CCN1CCN(c2c(S(=O)(=O)c3ccc(Cl)cc3)cnc3ccccc23)CC1	inactive: -1.08%
CC(NC(=O)c1ccc(Cn2c(=O)c3cccn3c3cccnc32)cc1)c1ccccc1 (stereo not given)	inactive: -20.1%
Cc1ccc(NC(=O)Cn2c(=O)n(CCCS(=O)(=O)C3CCCCC3)c(=O)c3ccccc32)cc1F	inactive: -11.9%
COc1ccc(C(=O)c2oc3ccccc3c2NC(=O)COc2ccc(C)cc2)cc1	inactive: 9.74%
COc1ccc(S(=O)(=O)c2cc3cc(OC)ccc3oc2=O)cc1	inactive: 19.9%
CCc1ccccc1NC(=O)N1CCc2cc(OC)c(OC)cc2C1CC(=O)OC (stereo not given)	inactive: -5.1%
Cc1ccc(C)c(Nc2nc3c(S(=O)(=O)c4ccc(Br)cc4)nnn3c3ccsc23)c1	inactive: -49%
CC1CCCCN1c1nc(-c2ccc(C(C)(C)C)cc2)nc2ccccc12 (stereo not given)	inactive: -0.103%
CCOC(=O)c1cc(OC(=O)c2cccc(Cl)c2)n(-c2ccccc2)n1	inactive: -18.8%
Cc1ccc(C)c(N2CCN(C(=O)Cn3c(C)c4cnn(-c5ccccc5)c(=O)c4c3C)CC2)c1	inactive: -46.6%
COc1cc(NC(=O)Cn2c(=O)nc(-c3ccccc3F)c3cc(Cl)ccc32)cc(OC)c1	inactive: -85.6%
CCN(C(=O)Cn1cc(C(=O)c2ccc(F)cc2)c(=O)c2ccc(C)nc21)c1cccc(C)c1	inactive: -26.6%
COC(=O)c1ccccc1NC(=O)Cn1nc(C(F)(F)F)c2c1CCCC2	inactive: -26.9%
CCOc1ccc(C(=O)N2CCC(c3ccncc3)CC2)cc1	inactive: -35.9%
CCC1CN(C(=O)N2CCC(C(=O)NCc3ccco3)CC2)c2cc(C)ccc2O1 (stereo not given)	inactive: -23.1%
CC(C)c1nc2ccc(C(=O)NCCCN3CCN(c4ccc(F)cc4)CC3)cc2o1	inactive: 12.5%
COc1cccc(-n2c(-c3ccc(C)cc3)cc3c2CC(C)(C)CC3=O)c1	inactive: -17.2%
Cc1cc(C)c2c(CC(=O)Nc3c(C(=O)c4ccc(F)cc4)oc4ccccc34)coc2c1	inactive: -1.4%
Cc1ccc2c(c1)CC(C)N2S(=O)(=O)c1nnc(NC(=O)CC(C)C)s1 (stereo not given)	inactive: -28.3%
CC(C)c1ccc2occ(CC(=O)Nc3cccc(C(F)(F)F)c3)c2c1	inactive: -73.3%

Compound	activity change, positive = activation
COc1ccc(OC)c(NC(=O)CCc2c(C)nc3c(c(C)nn3C(C)(C)C)c2C)c1	inactive: -31.6%
COc1ccccc1N1CCN(c2cc(C)nc3c(-c4ccc(Cl)cc4)c(C)nn23)CC1	inactive: -6.77%
CN(C)c1ccc(CNC(=O)CCn2c(=O)c3cccn3c3ccc(F)cc32)cc1	inactive: -11.3%
COc1cccc(-c2[nH]c3c(c2-c2c(-n4cccc4)n(C)c(=O)[nH]c2=O)c(=O)[nH]c(=O)n3C)c1	inactive: -6.44%
COCCCNc1nc2c(c(=O)n(C)c(=O)n2C)n1Cc1ccccc1	inactive: -20%
COCCOC(=O)C1=C(C)N=C2SCCC(=O)N2C1c1ccc(OCc2ccccc2)c(OC)c1 (stereo not given)	inactive: -11.1%
COCCNC(=O)CCSc1nc(-c2ccc3c(c2)OCO3)cc(C(F)(F)F)n1	inactive: -22.4%
CCc1nnc2c(NCc3cccc(OC)c3)nc3ccccc3n12	inactive: -9.83%
CCOc1ccccc1C(=O)Nc1nnc(COC)s1	inactive: 18.3%
Cc1ccc(C(=O)N2CCc3cc(CNC(=O)c4ccnn4C)ccc32)cc1	inactive: -41.5%
CCN(CC)S(=O)(=O)c1ccc2c(c1)c(=O)c(C(=O)NCc1ccccc1OC)cn2C	inactive: -9.42%
Cc1cn(C)c(CC(=O)N2CCN(c3ccc(F)cc3)CC2)c1C(=O)O	inactive: -5.84%
Cn1c(=O)c2c(ncn2C)n(C)c1=O	inactive
Cc1ccc(NS(=O)(=O)c2ccc3c(c2)NC(=O)CCS3)cc1F	inactive: -33%
O=C(NCc1ccc2c(c1)CCN2C(=O)c1ccccc1)c1ccc(Br)o1	inactive: -0.675%
Cc1ccc(-c2nc(-c3cc4cccc(OCc5cccc(F)c5)c4oc3=O)no2)cc1	inactive: -7.71%
CCOc1ccc(-n2c(Cc3ccccc3)nnc2SCc2nc(-c3cccs3)no2)cc1	inactive: -17%
O=C(Nc1ccc(Br)cc1)c1ccc(Cl)c(S(=O)(=O)N2CCCCCC2)c1	inactive: -27.6%
COc1cccc(NC(=O)c2sc3nc(C)c(C(=O)Nc4ccc(C)cc4C)c(-c4cccs4)c3c2N)c1	inactive: -7.56%
Cc1cc(C)cc(NC(=O)C2CCN(S(=O)(=O)c3c(C)noc3/C=C/c3ccco3)CC2)c1	inactive: -12.6%
Cc1ccn2c(Nc3c(C)cccc3C)c(-c3ccc(Cl)s3)nc2c1	inactive: -5.22%
CCCCN(CCCC)C1=C(C(=O)c2ccccc2)N(CC)S(=O)(=O)c2ccccc21	inactive: -39.5%
COC(=O)CN1C(=O)C(C)(C)c2cc(S(=O)(=O)NCc3ccc(Cl)cc3)ccc21	inactive: -6.37%
